T1: human TROP2 (Homo sapiens, UniProt P09758)
T1 sequence (P09758 27-323): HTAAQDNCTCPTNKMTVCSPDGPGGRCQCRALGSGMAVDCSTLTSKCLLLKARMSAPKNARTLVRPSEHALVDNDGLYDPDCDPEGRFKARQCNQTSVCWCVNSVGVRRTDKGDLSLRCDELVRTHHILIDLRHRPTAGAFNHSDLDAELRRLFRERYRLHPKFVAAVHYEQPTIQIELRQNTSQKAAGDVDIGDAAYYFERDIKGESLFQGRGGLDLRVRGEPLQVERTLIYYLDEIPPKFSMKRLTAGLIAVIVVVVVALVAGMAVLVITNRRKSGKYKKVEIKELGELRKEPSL


Target: T1, human TROP2
Test: SPR affinity ranking of humanized antibodies (Table 8C)
Format: binding

Molecule | Ka [M⁻¹ s⁻¹] | Kd (1/s) [s⁻¹] | Rmax (RU) | Kd [nM]
HC3/LC4: humanized anti-TROP2 antibody, heavy chain SEQ ID NO: 54, light chain SEQ ID NO: 61 (antibody) heavy: QVQLVQSGAEVKKPGASVKVSCKASGYTFTDYSINWVRQAPGQRLEWMGVISTYYGDASYNQKFKGRVTITRDTSASTAYMELSSLRSEDTAVYYCARYGDGYNQFDYWGQGTLVTVSS[human IgG1 constant region cut from this listing] light: EIVLTQSPATLSLSPGERATLSCRVSESVDSYGNNFMHWYQQKPGQAPRLLIYRASNLESGIPARFSGSGSGTDFTLTISSLEPEDFAVYYCQQSYEDPYTFGGGTKVEIKRTVAAPSVFIFPPSDEQLKSGTASVVCLLNNFYPREAKVQWKVDNALQSGNSQESVTEQDSKDSTYSLSSTLTLSKADYEKHKVYACEVTHQGLSSPVTKSFNRGEC | 1.37e+06 | 0.000192 | 37.2 | 
HC5/LC4: humanized anti-TROP2 antibody, heavy chain SEQ ID NO: 56, light chain SEQ ID NO: 61 (antibody) heavy: EVQLVQSGAEVKKPGESLKISCKGSGYTFTDYSINWVRQMPGKGLEWMGVISTYYGDASYNQKFKGQVTISADKSISTAYLQWSSLKASDTAMYYCARYGDGYNQFDYWGQGTLVTVSS[human IgG1 constant region cut from this listing] light: EIVLTQSPATLSLSPGERATLSCRVSESVDSYGNNFMHWYQQKPGQAPRLLIYRASNLESGIPARFSGSGSGTDFTLTISSLEPEDFAVYYCQQSYEDPYTFGGGTKVEIKRTVAAPSVFIFPPSDEQLKSGTASVVCLLNNFYPREAKVQWKVDNALQSGNSQESVTEQDSKDSTYSLSSTLTLSKADYEKHKVYACEVTHQGLSSPVTKSFNRGEC | 1.36e+06 | 0.000299 | 32.5 | 
HC1/LC2: humanized anti-TROP2 antibody, heavy chain SEQ ID NO: 52, light chain SEQ ID NO: 59 (antibody) heavy: QVQLVQSGAEVKKPGASVKVSCKASGYTFTDYSINWVRQAPGQGLEWMGVISTYYGDASYNQKFKGRVTMTTDTSTSTAYMELRSLRSDDTAVYYCARYGDGYNQFDYWGQGTMVTVSS[human IgG1 constant region cut from this listing] light: DVVMTQSPLSLPVTLGQPASISCRVSESVDSYGNNFMHWFQQRPGQSPRRLIYRASNLESGVPDRFSGSGSGTDFTLKISRVEAEDVGVYYCQQSYEDPYTFGGGTKVEIKRTVAAPSVFIFPPSDEQLKSGTASVVCLLNNFYPREAKVQWKVDNALQSGNSQESVTEQDSKDSTYSLSSTLTLSKADYEKHKVYACEVTHQGLSSPVTKSFNRGEC | 249000 | 0.00102 | 2 | 4.09
HC5/LC1 (antibody) heavy: EVQLVQSGAEVKKPGESLKISCKGSGYTFTDYSINWVRQMPGKGLEWMGVISTYYGDASYNQKFKGQVTISADKSISTAYLQWSSLKASDTAMYYCARYGDGYNQFDYWGQGTLVTVSS[human IgG1 constant region cut from this listing] light: DIVMTQSPDSLAVSLGERATINCRVSESVDSYGNNFMHWYQQKPGQPPKLLIYRASNLESGVPDRFSGSGSGTDFTLTISSLQAEDVAVYYCQQSYEDPYTFGQGTKLEIKRTVAAPSVFIFPPSDEQLKSGTASVVCLLNNFYPREAKVQWKVDNALQSGNSQESVTEQDSKDSTYSLSSTLTLSKADYEKHKVYACEVTHQGLSSPVTKSFNRGEC | 1.6e+06 | 0.000235 | 44.2 | 
HC5/LC3: humanized anti-TROP2 antibody, heavy chain SEQ ID NO: 56, light chain SEQ ID NO: 60 (antibody) heavy: EVQLVQSGAEVKKPGESLKISCKGSGYTFTDYSINWVRQMPGKGLEWMGVISTYYGDASYNQKFKGQVTISADKSISTAYLQWSSLKASDTAMYYCARYGDGYNQFDYWGQGTLVTVSS[human IgG1 constant region cut from this listing] light: DIVMTQSPLSLPVTPGEPASISCRVSESVDSYGNNFMHWYLQKPGQSPQLLIYRASNLESGVPDRFSGSGSGTDFTLKISRVEAEDVGVYYCQQSYEDPYTFGGGTKVEIKRTVAAPSVFIFPPSDEQLKSGTASVVCLLNNFYPREAKVQWKVDNALQSGNSQESVTEQDSKDSTYSLSSTLTLSKADYEKHKVYACEVTHQGLSSPVTKSFNRGEC | 1.46e+06 | 0.000266 | 34.3 | 
HC5/LC2: humanized anti-TROP2 antibody, heavy chain SEQ ID NO: 56, light chain SEQ ID NO: 59 (antibody) heavy: EVQLVQSGAEVKKPGESLKISCKGSGYTFTDYSINWVRQMPGKGLEWMGVISTYYGDASYNQKFKGQVTISADKSISTAYLQWSSLKASDTAMYYCARYGDGYNQFDYWGQGTLVTVSS[human IgG1 constant region cut from this listing] light: DVVMTQSPLSLPVTLGQPASISCRVSESVDSYGNNFMHWFQQRPGQSPRRLIYRASNLESGVPDRFSGSGSGTDFTLKISRVEAEDVGVYYCQQSYEDPYTFGGGTKVEIKRTVAAPSVFIFPPSDEQLKSGTASVVCLLNNFYPREAKVQWKVDNALQSGNSQESVTEQDSKDSTYSLSSTLTLSKADYEKHKVYACEVTHQGLSSPVTKSFNRGEC | 261000 | 0.000402 | 0.9 | 
HC5/LC5 (antibody) heavy: EVQLVQSGAEVKKPGESLKISCKGSGYTFTDYSINWVRQMPGKGLEWMGVISTYYGDASYNQKFKGQVTISADKSISTAYLQWSSLKASDTAMYYCARYGDGYNQFDYWGQGTLVTVSS[human IgG1 constant region cut from this listing] light: DIQMTQSPSSLSASVGDRVTITCRVSESVDSYGNNFMHWYQQKPGKAPKLLIYRASNLESGVPSRFSGSGSGTDFTFTISSLQPEDIATYYCQQSYEDPYTFGGGTKLEIKRTVAAPSVFIFPPSDEQLKSGTASVVCLLNNFYPREAKVQWKVDNALQSGNSQESVTEQDSKDSTYSLSSTLTLSKADYEKHKVYACEVTHQGLSSPVTKSFNRGEC | 1.42e+06 | 0.000338 | 61.3 | 

Source: patent US12458818B2, “Anti-trophoblast cell surface antigen 2 (TROP2) antibodies and antibody drug conjugates comprising same” (CSPC MEGALITH BIOPHARMACEUTICAL CO., LTD., priority 2019, dated 2025)
